In all, about 360,000 compounds went through this assay and about 16,000 (4.4%) were called active. The inconclusive results got no clear call from the source; some entries with a clear call stand among them for comparison. The call rests on the fitted dose curve; in most records, active means well fitted inhibition curve with a large enough effect; inconclusive means small, poorly fitted or top-dose-only effect; inactive means no such curve, though single readings can be large or run the other way. Potencies of inconclusive entries are doubtful fits and often do not repeat.
Molecular target: Bromodomain adjacent to zinc finger domain protein 2B (Homo sapiens) (UniProt Q9UIF8)
Test: qHTS Assay for Inhibitors of BAZ2B; further: nearly all actives have a fitted effect of over 60% in size
Conditions: AlphaScreen BAZ2B-H3K14Ac peptide displacement; series mostly up to 114 µM
Summary of the method: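 AlphaScreen luminescence quantifies BAZ2B engagement of H3K14Ac peptide; the protein and biotinylated peptide are both at 50 nM final, buffer PBS pH 7.4 with 0.01% Tween-20, all steps at room temperature.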
Potency means the concentration at half of the fitted maximal effect; tags describe the fitted curve by direction and shape.

UniProt Q9UIF8, sequence (Q9UIF8 whole entry, looked up, the tested form may be a part): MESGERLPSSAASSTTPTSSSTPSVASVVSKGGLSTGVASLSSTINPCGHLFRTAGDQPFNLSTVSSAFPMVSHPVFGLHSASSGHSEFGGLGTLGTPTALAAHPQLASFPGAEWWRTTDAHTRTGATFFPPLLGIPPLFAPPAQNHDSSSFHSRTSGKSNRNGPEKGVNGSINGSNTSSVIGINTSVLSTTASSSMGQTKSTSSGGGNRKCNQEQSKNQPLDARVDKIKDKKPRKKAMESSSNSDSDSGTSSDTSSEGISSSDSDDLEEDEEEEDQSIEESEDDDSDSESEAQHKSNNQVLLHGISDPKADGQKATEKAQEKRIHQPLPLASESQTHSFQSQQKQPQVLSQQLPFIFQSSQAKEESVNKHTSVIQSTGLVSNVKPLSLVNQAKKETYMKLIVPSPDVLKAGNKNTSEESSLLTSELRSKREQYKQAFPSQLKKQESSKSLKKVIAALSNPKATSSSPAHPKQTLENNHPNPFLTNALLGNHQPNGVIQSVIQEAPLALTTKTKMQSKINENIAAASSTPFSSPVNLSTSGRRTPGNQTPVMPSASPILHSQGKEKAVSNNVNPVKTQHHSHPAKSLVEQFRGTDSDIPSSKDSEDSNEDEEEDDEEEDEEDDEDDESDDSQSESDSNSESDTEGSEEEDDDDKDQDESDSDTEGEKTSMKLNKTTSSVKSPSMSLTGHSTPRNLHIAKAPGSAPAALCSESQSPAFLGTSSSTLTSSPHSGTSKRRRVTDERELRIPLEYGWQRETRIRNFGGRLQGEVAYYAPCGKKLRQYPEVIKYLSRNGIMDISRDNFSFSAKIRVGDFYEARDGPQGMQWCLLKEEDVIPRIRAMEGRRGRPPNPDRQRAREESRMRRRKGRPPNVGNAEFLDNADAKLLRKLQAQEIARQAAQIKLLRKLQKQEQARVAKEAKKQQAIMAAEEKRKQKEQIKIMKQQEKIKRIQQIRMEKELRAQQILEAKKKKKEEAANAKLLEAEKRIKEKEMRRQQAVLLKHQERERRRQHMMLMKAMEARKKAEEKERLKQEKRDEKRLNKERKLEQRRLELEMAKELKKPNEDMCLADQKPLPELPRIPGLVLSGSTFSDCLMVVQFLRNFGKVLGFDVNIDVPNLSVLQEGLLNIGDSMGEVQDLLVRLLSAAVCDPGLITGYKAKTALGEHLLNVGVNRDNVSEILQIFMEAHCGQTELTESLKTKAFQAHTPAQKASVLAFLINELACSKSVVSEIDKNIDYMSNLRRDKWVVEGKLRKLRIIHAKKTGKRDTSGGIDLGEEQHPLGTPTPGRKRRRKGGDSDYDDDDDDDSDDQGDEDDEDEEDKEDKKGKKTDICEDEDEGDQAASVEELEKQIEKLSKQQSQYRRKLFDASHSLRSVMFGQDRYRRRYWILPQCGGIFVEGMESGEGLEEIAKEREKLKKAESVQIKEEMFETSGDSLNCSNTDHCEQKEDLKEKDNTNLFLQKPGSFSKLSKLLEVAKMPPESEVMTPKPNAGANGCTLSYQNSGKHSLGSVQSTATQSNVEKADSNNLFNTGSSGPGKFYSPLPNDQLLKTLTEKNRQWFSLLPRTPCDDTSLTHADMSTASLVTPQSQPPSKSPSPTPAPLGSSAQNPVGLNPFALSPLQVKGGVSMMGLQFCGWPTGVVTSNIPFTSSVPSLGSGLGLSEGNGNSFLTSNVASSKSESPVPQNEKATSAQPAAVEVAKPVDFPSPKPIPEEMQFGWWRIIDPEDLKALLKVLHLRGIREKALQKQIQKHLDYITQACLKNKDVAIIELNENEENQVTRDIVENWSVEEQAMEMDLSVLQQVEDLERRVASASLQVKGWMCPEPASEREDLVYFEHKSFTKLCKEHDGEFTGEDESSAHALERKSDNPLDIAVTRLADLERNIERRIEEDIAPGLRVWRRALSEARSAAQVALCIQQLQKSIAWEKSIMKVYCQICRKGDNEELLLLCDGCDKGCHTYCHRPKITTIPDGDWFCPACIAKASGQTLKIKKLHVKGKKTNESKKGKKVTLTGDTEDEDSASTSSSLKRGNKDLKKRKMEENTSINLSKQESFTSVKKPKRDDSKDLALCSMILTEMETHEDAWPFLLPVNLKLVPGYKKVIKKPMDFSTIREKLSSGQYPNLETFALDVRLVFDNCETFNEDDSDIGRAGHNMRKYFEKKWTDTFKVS

Compound	Potency
Cc1nc2ccc(NC(=O)Cc3ccccc3F)cc2s1	inactive
CN(C)S(=O)(=O)c1ccc(-n2cccc2)cc1	inconclusive: 50.1 µM [inhibitor, partial curve]
CNc1nc(C)c([N+](=O)[O-])c(Nc2ccc(OC)cc2)n1	inconclusive: 56.2 µM [inhibitor, partial curve]
CN(C)c1ccc(Nc2nc(N)c([N+](=O)[O-])c(N3CCOCC3)n2)cc1	active: 35.5 µM
O=C1SCCC1NS(=O)(=O)c1ccc([N+](=O)[O-])cc1 (stereo not drawn)	inconclusive: 50.1 µM [inhibitor, partial curve]
O=C1N/C(=N/O)S/C1=C/c1cccnc1	inconclusive: 79.4 µM [inhibitor, single point]
N#Cc1ccc(NC(=O)C2=COCCO2)cc1	inactive
COc1ccc(-n2c(CN3CCC(C(N)=O)CC3)nc3ccc([N+](=O)[O-])cc3c2=O)c(OC)c1	inconclusive: 56.2 µM [inhibitor, partial curve, poor fit]
Cc1cc(Cl)c(S(=O)(=O)N2CCN(c3ccccc3)CC2)cc1OCC(N)=O	inactive
O=C1c2[nH]nc(-c3ccccc3O)c2C(c2ccccc2F)N1Cc1ccco1 (stereo not drawn)	inconclusive: 79.4 µM [inhibitor, single point]
COc1ccc(-c2cc(C(F)F)n3ncc(C(=O)Nc4cc(C)on4)c3n2)cc1	active: 79.4 µM
COc1cc(NC(=O)c2nnn(Cc3ccc(F)cc3)c2N)cc(OC)c1	inconclusive: 50.1 µM [inhibitor, full curve, poor fit]
COc1cccc(CNc2cccc3cccnc23)c1O	inconclusive: 89.1 µM [inhibitor, single point]
CCOc1ccc(CCNC(=O)CCc2nnc3ccc(N4CCCCC4)nn23)cc1OCC	inactive
O=C(NC(=S)Nn1cnc2c(cnn2-c2ccccc2)c1=O)c1ccc(Cl)cc1	inactive
O=C1OC(/C(=C\Nc2cc(Cl)ccc2O)[N+](=O)[O-])c2ccccc21 (stereo not drawn)	active: 44.7 µM
CCN1CCN(c2cc(=O)n(-c3cc(Cl)ccc3C)c(=O)[nH]2)CC1	inactive
OC(CN1CCNCC1)Cn1ccc2ccccc21 (stereo not drawn)	inconclusive: 50.1 µM [inhibitor, partial curve]
CCOc1ccc(CCNC(=O)c2ccc3c(c2)c(C)c(C)n3C)cc1	inconclusive: 31.6 µM [inhibitor, full curve]
O=[N+]([O-])c1ccc2c3n([n+]([O-])c2c1)CCN=C3c1ccc(Cl)cc1	active: 50.1 µM
CSc1nc2sc3c(c2c(=O)n1-c1ccc(C)c(Cl)c1)CCN(C(C)=O)C3	active: 79.4 µM
N#CCc1ccc(Oc2ncccn2)cc1	inactive
CCC(=O)Nc1ccc(-c2nnc(SCC(=O)NCC3CCCO3)n2C)cc1 (stereo not drawn)	inactive
Cc1ccc(C(=O)/C=C2\NCC(C)NC2=O)cc1 (stereo not drawn)	inconclusive: 89.1 µM [inhibitor, single point]
COc1ccc(OC)c(S(=O)(=O)N2CCCC(N3CCN(c4ccccc4)CC3)C2)c1 (stereo not drawn)	inconclusive: 35.5 µM [inhibitor, single point]

Compound	Potency
O=C(Nc1cccnc1)c1cc(-c2cccs2)on1	inconclusive: 89.1 µM [inhibitor, single point]
COc1ccc(-n2c(CN3CCN(c4ccccn4)CC3)nc3ccc([N+](=O)[O-])cc3c2=O)c(OC)c1	inconclusive: 39.8 µM [inhibitor, partial curve]
COc1ccccc1N1CCN(C(=O)CCc2c(C)nn(-c3ccc(N4CCCC4)nn3)c2C)CC1	inactive
COC(=O)c1ccc(OC)c(Cn2c(=O)n(C)c(=O)c3ccccc32)c1	inconclusive: 56.2 µM [inhibitor, partial curve]
CCCOc1ccccc1N/C(=N/c1nc(C)cc(C)n1)NC(=O)Nc1ccc(Cl)cc1	inactive
CC1CC1C(=O)OCC(=O)NCc1ccc(Cl)cc1 (stereo not drawn)	inactive
O=C(Nc1ccccc1C(=O)N1CCN(Cc2ccccc2)CC1)c1ccccn1	inactive
CCN1/C(=C/c2ccc3cc(C)ccc3[n+]2CC)Sc2cc(C)c(C)cc21	active: 44.7 µM
O=C(NCCc1ccc(Cl)cc1)c1cccnc1	inconclusive: 89.1 µM [inhibitor, single point]
O=C(NNS(=O)(=O)c1ccc(Br)cc1)c1ccccc1-n1cccc1	inactive
CN=C1C=C/C(=N/N=c2\ccn(O)cc2C)C=C1C	active: 35.5 µM
C=CCNC(=S)NNC(=O)C(CCCC)CC(C)(C)O (stereo not drawn)	inconclusive: 44.7 µM [inhibitor, partial curve]
O=C(NCc1ccco1)c1ccc2c(c1)N(Cc1ccccc1)CCS2	inconclusive: 25.1 µM [inhibitor, full curve, poor fit]
COc1cccc(C2C(C(=O)c3cccs3)=C(O)C(=O)N2CCN2CCOCC2)c1 (stereo not drawn)	inactive
COc1cccc2sc(Nc3nc(-c4ccccn4)cs3)nc12	active: 50.1 µM
Cc1nc(N)sc1-c1csc(Nc2ncccn2)n1	inconclusive: 8.91 µM [inhibitor, full curve, poor fit]
Cc1cc(C)cc(N=Cc2[nH]c3ccc(Br)c(Cl)c3c2O)c1	inconclusive: 89.1 µM [inhibitor, single point]
O=C(Nc1ccsc1C(=O)O)c1ccc(Cl)cc1	inactive
CCCCn1c(=O)[nH]c2nc3cc(N)ccc3nc2c1=O	inconclusive: 79.4 µM [inhibitor, single point]
CCn1cc(C(=O)N2CCN(c3ccc(OC)cc3)CC2)c(=O)c2cc(S(=O)(=O)N3CCCCC3)ccc21	inconclusive: 89.1 µM [inhibitor, single point]
N#C/C(=C(/O)C(Cl)c1ccccc1)c1nc2ccccc2s1 (stereo not drawn)	inconclusive: 89.1 µM [inhibitor, single point]
O=[N+]([O-])c1ccc(/C=C/c2ccc3cccc([N+](=O)[O-])c3n2)cc1	inconclusive: 10 µM [inhibitor, full curve]
Cc1cc2ccccn2c1C(=O)c1ccc(C#N)cc1	inconclusive: 50.1 µM [inhibitor, partial curve]
O=c1nc(/C=C/c2cc([N+](=O)[O-])ccc2Cl)cc(C(F)(F)F)[nH]1	inconclusive: 31.6 µM [inhibitor, single point]
CCOc1ccc(-c2nc(CSCC(=O)NC3CCCc4ccccc43)c(C)o2)cc1 (stereo not drawn)	inconclusive: 89.1 µM [inhibitor, single point]

Compound	Potency
Cc1ccc(C(=O)Nc2ncccc2O)o1	inconclusive: 89.1 µM [inhibitor, single point]
O=C1NC2c3ccccc3CC2O1 (stereo not drawn)	inactive
COc1ccc(OCc2cnc(Cl)s2)cc1	inactive
O=C(CCc1ccccn1)N1CCCC(Nc2ccc(F)cc2)C1 (stereo not drawn)	inactive
CC(=O)C1=C(OC(=O)C(C)C)c2ccccc2S(=O)(=O)N1Cc1ccccc1	inconclusive: 79.4 µM [inhibitor, single point]
COc1ccc2c(CNCC(C)c3ccccc3)c(C(=O)O)n(Cc3ccc(F)cc3Cl)c2c1 (stereo not drawn)	inconclusive: 89.1 µM [inhibitor, single point]
CN(CC(=O)Nc1ccccc1C(F)(F)F)C(=O)C1CCN(S(=O)(=O)c2ccc3c(c2)OCCO3)CC1	inactive
O=C1NN(c2cccc(Br)c2)C(=O)/C1=C\c1ccc(N2CCOCC2)cc1	inconclusive: 70.8 µM [inhibitor, single point]
Cc1ccc(OCC(=O)N(Cc2ccco2)C2CCS(=O)(=O)C2)cc1C (stereo not drawn)	inconclusive: 89.1 µM [inhibitor, single point]
COc1cc(NC(=O)c2ccc(C(C)(C)C)cc2)c(OC)cc1NC(=O)CN1CCCCC1	inconclusive: 89.1 µM [inhibitor, single point]
O=C(CSCC(=O)Nc1cccc2ccccc12)Nc1cccc2ccccc12	inconclusive: 79.4 µM [inhibitor, single point]
Cn1cc(CC(=O)Nc2cccc(C#N)c2)c2ccccc21	inconclusive: 89.1 µM [inhibitor, single point]
Cn1c2ccccc2c2cc(/C=C(\NC(=O)c3ccccc3)C(=O)O)ccc21	inconclusive: 79.4 µM [inhibitor, partial curve]
FC(F)(F)c1cccc(N2CCN(Cc3ccoc3)CC2)c1	active: 50.1 µM
COc1ccc(/C=N/Nc2nnc(-c3ccccc3)c(=O)[nH]2)cc1	inconclusive: 89.1 µM [inhibitor, single point]
COn1c(=O)c(-c2ccccc2)[n+]([O-])c2ccccc21	inactive
COC(=O)c1ccc(Cl)cc1NC(=O)N1CC=C(c2c[nH]c3ccccc23)CC1	inconclusive: 89.1 µM [inhibitor, single point]
Cc1ccc(S(=O)(=O)N[C@H](C(=O)N2CCC(C(=O)N[C@@H](CCC(N)=O)C(=O)O)CC2)C(C)C)cc1	inconclusive: 89.1 µM [inhibitor, single point]
COc1ccc(OC)c(NC2=C(c3ccccc3)C(=O)c3ccccc32)c1	active: 5.62 µM
Cc1ccc(/C=N/Nc2ccc(Cl)c(C(=O)O)c2)s1	inconclusive: 89.1 µM [inhibitor, single point]
O=S(=O)(c1ccc(OC(F)(F)F)cc1)N1CCC(O)(c2cccc(C(F)(F)F)c2)CC1	inactive
O=C(CN1C(=O)S/C(=C/c2cccs2)C1=O)N1CCCC1	inconclusive: 89.1 µM [inhibitor, single point]
Cc1cc(C(C)(C)C)ccc1OCCOCCN1CCCC1	inconclusive: 89.1 µM [inhibitor, single point]

From PubChem BioAssay AID504333 (National Center for Advancing Translational Sciences (NCATS), 2011)
